# Reference: PubChem BioAssay AID1345082 (National Center for Advancing Translational Sciences (NCATS), 2018)
# Out of some 94,000 compounds screened, about 4,000 (4.3%) were called active. Inconclusive means that the source gave no clear call. Such entries were picked first, then a sample of the others. The call rests on the fitted dose curve; in most records, active means well fitted inhibition curve with a large enough effect; inconclusive means small, poorly fitted or top-dose-only effect; inactive means no such curve, though single readings can be large or run the other way. Potencies beside an inconclusive call are fits to weak or partial responses and may not hold up.
# Test: Cytotoxic Profiling in NIH 3T3 Cell Line of Diverse Libraries Using Quantitative High-Throughput Screening; further: nearly all actives have a fitted effect of over 55% in size
# Conditions: NIH 3T3 viability, CellTiter-Glo ATP luminescence, 48-72 h; activity change, negative = cytotoxicity: at 96.7 µM (top of the series) unless noted; series mostly up to 96.7 µM
# Method in brief: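 ATP-dependent luminescence (CellTiter-Glo) served as the viability signal for NIH 3T3 cells treated with compound for 48 or 72 hr at 37 °C.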
# On the % scale 0 is the no-effect control and ±100 the full control effect; potency means the concentration at half of the fitted maximal effect; tags describe the fitted curve by direction and shape.
SMILES,"activity change, negative = cytotoxicity",Potency
CC(C)CN1CCN(C(=O)CCC[C@H]2NC[C@@H]3C[C@H]2CN(Cc2ccccc2)C3)CC1,inactive: 1.83%,–
O=C(Nc1ccccc1)N1CCC2(CC1)SCC(=O)N2c1ccc(Cl)cc1,–,"inconclusive: 35.5 µM [inhibitor, partial curve, poor fit]"
O=C1CC(c2noc(-c3cc(F)cc(F)c3)n2)CN1c1ccc(F)cc1 (stereo not given),–,"inconclusive: 28.2 µM [inhibitor, partial curve, poor fit]"
COc1ccc(-c2cccc(C(=O)NCCc3ccc(Cl)cc3)c2)nn1,–,"inconclusive: 35.5 µM [inhibitor, full curve]"
O=C(Cc1ccc(Oc2ccccc2)cc1)N1CC(COc2ccccc2)C2(C1)CN(C(=O)c1cn[nH]c1)C2 (stereo not given),–,"inconclusive: 44.7 µM [inhibitor, partial curve, poor fit]"
O=C(NCCN1CCOCC1)[C@H]1C[C@@H](O)[C@H](O)[C@@H]2N=C(Nc3ccc(-n4cccn4)cc3)S[C@@H]21,inactive: -15.8%,–
Cc1c(CN2C[C@@H](CN(C)CCO)[C@@H](CO)C2)[nH]c2c(Cl)cccc12,–,active: 79.4 µM
CC(C)C[C@@H]1N[C@H](C(=O)NCc2ccc(F)cc2)Cc2c[nH]c3cccc1c23,–,active: 39.8 µM
CNC(=O)C1C(=O)NCC12CCN(C(=O)c1ccc(C(C)(C)C)cc1)CC2 (stereo not given),–,"inconclusive: 50.1 µM [inhibitor, partial curve, poor fit]"
COc1cccc(CN2C(=O)CCCCC2C(=O)N2CCN(c3ccccn3)CC2)c1 (stereo not given),inactive: -18.4%,–
Cc1noc2c(N(C)C)cc(-c3cccnc3)nc12,–,"inconclusive: 70.8 µM [inhibitor, partial curve]"
O=C(Nc1cccc2ccccc12)O[C@@H]1CO[C@H]2[C@@H]1OC[C@@H]2NC(=S)Nc1cccc2ccccc12,–,"inconclusive: 28.2 µM [inhibitor, partial curve]"
CCn1ccc(C(=O)N2c3ccccc3CC2c2nc(C(C)C)no2)n1 (stereo not given),inactive: -15.9%,–
O=C(CCC1CCCN(S(=O)(=O)c2cccc(F)c2)C1)NC1CCCCC1 (stereo not given),–,"inconclusive: 44.7 µM [inhibitor, partial curve, poor fit]"
Cc1ccc(CNC(=O)c2cc(-c3ccc(C(F)(F)F)cc3)nc3c2cnn3C)o1,–,"inconclusive: 14.1 µM [inhibitor, partial curve, poor fit]"
COc1cccc(CN2CC3(C2)NC(=O)c2ccccc2O3)c1,–,"inconclusive: 35.5 µM [inhibitor, partial curve, poor fit]"
N#Cc1cccc(NC(=O)O[C@@H]2CO[C@H]3[C@@H]2OC[C@@H]3Nc2nccc(-c3cccc(F)c3)n2)c1,–,active: 22.4 µM
Cc1ccc(CNC(=O)C2(c3ccc(NC(=O)C4CC4)cc3)CCCCC2)o1,–,"inconclusive: 44.7 µM [inhibitor, partial curve, poor fit]"
CN(Cc1ccc(C(F)(F)F)cc1)C1CCc2ccccc21 (stereo not given),–,"inconclusive: 89.1 µM [inhibitor, partial curve]"
COc1ccc(CNC(=O)C2CCCN2c2nccc(Nc3ccccc3OC)n2)cc1 (stereo not given),–,"inconclusive: 50.1 µM [inhibitor, partial curve, poor fit]"

SMILES,"activity change, negative = cytotoxicity",Potency
Cc1cnc(C(=O)NC2C[C@H]3CC[C@@H](C2)N3C(=O)Cc2ccsc2)cn1 (stereo not given in full),inactive: -15.9%,–
CC(C)(C)CC(=O)Nc1ccc([C@@H](O)[C@H]2COCC(=O)N2CCCc2ccccc2)cc1,inactive: -14.7%,–
COc1ccc(OCC(O)CN2CCC(=O)N(CC3CC3)Cc3ccccc32)cc1 (stereo not given),–,"inconclusive: 56.2 µM [inhibitor, partial curve, poor fit]"
O=C(NCCc1ccco1)C1c2ccccc2C(=O)N(Cc2ccccc2)C12CCCC2 (stereo not given),–,"inconclusive: 70.8 µM [inhibitor, single point]"
COc1ccc(-c2nc3cc(C)ccc3cc2CN2CC[C@@H](O)C2)cc1OC,–,"inconclusive: 56.2 µM [inhibitor, partial curve, poor fit]"
COc1ncc(-c2cnc3[nH]cc(CC(=O)N4CCOCC4)c3c2)cn1,–,active: 79.4 µM
CCc1noc(-c2nnn3c2COC(c2ccc(Cl)cc2)C3)n1 (stereo not given),–,"inconclusive: 50.1 µM [inhibitor, partial curve, poor fit]"
CC1(C)CC(NC(=O)Cn2nc3c(cc2=O)CCCCC3)CCO1 (stereo not given),inactive: 2.62%,–
Cc1ccc(C(=O)N2CCCN(C(=O)C3CC3)C(c3ccccc3)CC(=O)NCC2)s1 (stereo not given),inactive: -12%,–
CSc1ccc(CNC(=O)c2nnn3c2COC(c2ccc(Cl)cc2)C3)cc1 (stereo not given),–,"inconclusive: 44.7 µM [inhibitor, partial curve, poor fit]"
COCCN1C[C@@H]2[C@H](c3ccccc31)[C@@H](CO)[C@@H](c1ccccc1)N2C(=O)C1CC1,–,"inconclusive: 70.8 µM [inhibitor, single point]"
CC(C)CCN1CCC(Cc2ccc(C(=O)NC3CC3)cc2)CC1,–,"inconclusive: 44.7 µM [inhibitor, partial curve, poor fit]"
CC(C)c1nc(-c2ccc(OC3CCN(C(=O)c4ccccc4F)C3)cc2)no1 (stereo not given),–,"inconclusive: 50.1 µM [inhibitor, partial curve, poor fit]"
CN(Cc1nc(C2CC2)no1)C(=O)c1cc(Cn2ccc3ccccc32)[nH]n1,–,"inconclusive: 35.5 µM [inhibitor, full curve, poor fit]"
O=C(O)C[C@@H]1CCN(C(=O)c2ccc(F)cc2)C[C@@H]1CCN1CCN(c2cccc(C(F)(F)F)c2)CC1,inactive: -26%,–
O=C(c1cccc(Cl)c1)N1CCC(C(=O)N2CCC(N3CCOC3=O)CC2)CC1,inactive: -17.2%,–
COc1ccccc1C(=O)N1CCN(c2ccc3nnc(-c4ccccc4)n3n2)CC1,–,"inconclusive: 39.8 µM [inhibitor, partial curve]"
O=C(NCc1cccs1)c1ccc2nc(-c3ccccn3)oc2c1,–,"inconclusive: 39.8 µM [inhibitor, partial curve, poor fit]"
C=CCCC(CN1CCOCC1)Oc1ccc(-c2nc(C)no2)cn1 (stereo not given),inactive: -14.7%,–
CCn1cc(S(=O)(=O)N2C[C@@H](Oc3cccnc3)C[C@H]2C(=O)NCCOC)cn1,inactive: -9.16%,–
